{
  "source": "the supplement of paper PMC10670038",
  "note": "Where a name gives a salt, the structure may show the parent alone. ± gives the standard deviation of the averaged measurements. In all, about 2,000 compounds were measured (“relative cell viability vs DMSO, compound + 0.2 uM CuET”: median about 1, lowest 2% from about 0.25 on). The list shows a part of the results.",
  "data": [
    {"test_system": "TE10", "assay": "relative cell viability vs DMSO, compound + 0.2 uM CuET (fraction); TE10 is an esophageal squamous carcinoma line; higher = less cytotoxic", "conditions": "2 µM; co-treatment: CuET (bis(diethyldithiocarbamate)copper) 0.2 uM; 48 h", "procedure": "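TE10 ESCC cells (1,000/well, 384-well plates) were treated with Selleck bioactive library compounds at 2 uM combined with 0.2 uM CuET (copper diethyldithiocarbamate) for 48 h. Viability was read by CellTiter-Glo and expressed relative to DMSO wells. Two technical replicates (A, B).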", "values": [
      {"compound": "Nc1cccc2c1CN(C1CCC(=O)NC1=O)C2=O", "note": "(centres undefined) [Lenalidomide (CC-5013)]", "relative cell viability": "1.37 ± 0.16"},
      {"compound": "NC(=S)N/N=C/c1ncccc1N", "note": "[Triapine]", "relative cell viability": "1.28 ± 0.11"},
      {"compound": "Cn1c2ccccc2c2c3c(c4c5ccccc5n(CCC#N)c4c21)CNC3=O", "relative cell viability": "0.893 ± 0.047"},
      {"compound": "COc1ccc(CNC(=O)Nc2ncc([N+](=O)[O-])s2)cc1", "relative cell viability": "1.15 ± 0.19"},
      {"compound": "OCCOCCN1CCN(C(c2ccccc2)c2ccc(Cl)cc2)CC1", "note": "(centres undefined) [Hydroxyzine 2HCl]", "relative cell viability": "1.14 ± 0.14"},
      {"compound": "C/C(=N\\NC(=O)c1cccc(S(=O)(=O)N2CCOCC2)c1)c1cc(Cl)ccc1O", "relative cell viability": "0.894 ± 0.038"},
      {"compound": "O=C(NS(=O)(=O)c1ccc(Br)s1)c1ccc(Cl)cc1Cl", "note": "[Tasisulam]", "relative cell viability": "1.16 ± 0.017"},
      {"compound": "[I-].[K+]", "note": "[Potassium Iodide]", "relative cell viability": "1.16 ± 0.013"},
      {"compound": "Cc1cc(-n2c(=O)[nH]c(=O)n(C)c2=O)ccc1Oc1ccc(SC(F)(F)F)cc1", "note": "[Toltrazuril]", "relative cell viability": "1.13 ± 0.24"},
      {"compound": "Cc1ccccc1N1C(=O)c2cc(S(N)(=O)=O)c(Cl)cc2NC1C", "note": "(centres undefined) [Metolazone]", "relative cell viability": "0.96465 ± 7.9e-05"},
      {"compound": "O=NN(CCCl)C(=O)NC1CCCCC1", "note": "[Lomustine]", "relative cell viability": "0.963 ± 0.061"},
      {"compound": "COc1cc(CCC(C)=O)ccc1O", "note": "[Vanillylacetone]", "relative cell viability": "1.08 ± 0.067"},
      {"compound": "COc1cnc(NS(=O)(=O)c2ccc(N)cc2)nc1", "note": "[Sulfameter]", "relative cell viability": "1.16 ± 0.073"},
      {"compound": "CC(C)c1cc(C(=O)N2Cc3ccc(CN4CCN(C)CC4)cc3C2)c(O)cc1O", "relative cell viability": "0.741 ± 0.025"},
      {"compound": "C[C@]12CC[C@@H]3c4ccc(O)cc4CC[C@H]3[C@@H]1CCC2=O", "note": "[Estrone]", "relative cell viability": "1.042 ± 0.0093"},
      {"compound": "Nc1ncnc2c1c(-c1cccc(OCc3ccccc3)c1)cn2C1CC(CN2CCC2)C1", "note": "(centres undefined)", "relative cell viability": "1 ± 0.035"},
      {"compound": "COc1cc(C(=O)NC2CCCNC2)cc(OC)c1OC", "note": "(centres undefined) [Troxipide]", "relative cell viability": "1.2301 ± 0.0012"},
      {"compound": "CCCCCCCCc1ccc(CCC(N)(CO)CO)cc1", "note": "[Fingolimod (FTY720) HCl]", "relative cell viability": "0.924 ± 0.031"},
      {"compound": "Cn1cc(-c2ccc3nnc(C(F)(F)c4ccc5ncccc5c4)n3n2)cn1", "relative cell viability": "0.79 ± 0.39"},
      {"compound": "c1ccc2[nH]c(-c3cscn3)nc2c1", "note": "[Thiabendazole]", "relative cell viability": "0.929 ± 0.01"},
      {"compound": "CCC(CC)CC1(C(=O)Nc2ccccc2SC(=O)C(C)C)CCCCC1", "relative cell viability": "0.962 ± 0.19"},
      {"compound": "COC1=C2C[C@@H](C)C[C@H](OC)[C@H](O)[C@@H](C)/C=C(\\C)[C@H](OC(N)=O)[C@@H](OC)/C=C\\C=C(/C)C(=O)NC(=CC1=O)C2=O", "note": "[Geldanamycin]", "relative cell viability": "0.712 ± 0.16"},
      {"compound": "CN1CC2c3ccccc3Oc3ccc(Cl)cc3C2C1", "note": "(centres undefined) [Asenapine]", "relative cell viability": "1.2 ± 0.058"},
      {"compound": "CNC(=O)Nc1ccc(-c2nc(N3CC4CCC(C3)O4)c3cnn(C4CCC5(CC4)OCCO5)c3n2)cc1", "relative cell viability": "0.602 ± 0.047"},
      {"compound": "COc1cc(Nc2ncc(F)c(Nc3ccc4c(n3)N(COP(=O)(O)O)C(=O)C(C)(C)O4)n2)cc(OC)c1OC", "note": "[Fostamatinib (R788)]", "relative cell viability": "0.725 ± 0.024"},
      {"compound": "Cc1nnc(C(C)C)n1C1C[C@H]2CC[C@@H](C1)N2CC[C@H](NC(=O)C1CCC(F)(F)CC1)c1ccccc1", "note": "(stereo in doubt) [Maraviroc]", "relative cell viability": "1.09 ± 0.018"},
      {"compound": "CCCCCCCN(CC)CCCC(O)c1ccc(NS(C)(=O)=O)cc1", "note": "(centres undefined) [Ibutilide Fumarate]", "relative cell viability": "1.04 ± 0.081"},
      {"compound": "Cn1c(=O)cc(N2CCC[C@@H](N)C2)n(Cc2ccccc2C#N)c1=O", "note": "[Alogliptin]", "relative cell viability": "1.1 ± 0.21"},
      {"compound": "CC1(C)S[C@@H]2[C@H](NC(=O)[C@H](NC(=O)N3CCN(S(C)(=O)=O)C3=O)c3ccccc3)C(=O)N2[C@H]1C(=O)O", "note": "[Mezlocillin Sodium]", "relative cell viability": "1.13 ± 0.041"},
      {"compound": "Cc1cccc(-c2[nH]c(CNc3ccccc3F)nc2-c2ccc3ncnn3c2)n1", "relative cell viability": "1.05 ± 0.11"},
      {"compound": "O=C(Nc1c(Cl)cncc1Cl)c1ccc(OC(F)F)c(OCC2CC2)c1", "note": "[Roflumilast]", "relative cell viability": "1.03 ± 0.0057"},
      {"compound": "CCOC(=O)OC(C)OC1=C(C(=O)Nc2ccccn2)N(C)S(=O)(=O)c2ccccc21", "note": "(centres undefined) [Ampiroxicam]", "relative cell viability": "1.24 ± 0.21"},
      {"compound": "CCCS(=O)(=O)Nc1ccc(F)c(C(=O)c2c[nH]c3ncc(-c4ccc(Cl)cc4)cc23)c1F", "note": "[Vemurafenib (PLX4032, RG7204)]", "relative cell viability": "1.32 ± 0.11"},
      {"compound": "C[C@@H]1O[C@@H](O[C@H]2[C@H](Oc3cc(O)c(C(=O)CCc4ccc(O)cc4)c(O)c3)O[C@H](CO)[C@@H](O)[C@@H]2O)[C@H](O)[C@H](O)[C@H]1O", "note": "[Naringin Dihydrochalcone]", "relative cell viability": "1.07 ± 0.034"},
      {"compound": "CCCCNC(=O)NS(=O)(=O)c1ccc(C)cc1", "note": "[Tolbutamide]", "relative cell viability": "1.13 ± 0.076"},
      {"compound": "O=S(=O)(O)CCS", "note": "[Mesna]", "relative cell viability": "1.08 ± 0.024"},
      {"compound": "CNCCC(Oc1ccc(C(F)(F)F)cc1)c1ccccc1", "note": "(centres undefined) [Fluoxetine HCl]", "relative cell viability": "1.16 ± 0.068"},
      {"compound": "Cc1nc2n(c(=O)c1CCN1CCC(c3noc4cc(F)ccc34)CC1)CCCC2", "note": "[Risperidone]", "relative cell viability": "1.11 ± 0.041"},
      {"compound": "C[C@@H](CN1CC(=O)NC(=O)C1)N1CC(=O)NC(=O)C1", "note": "[Dexrazoxane HCl (ICRF-187, ADR-529)]", "relative cell viability": "1.1 ± 0.015"},
      {"compound": "OCc1cc(C(O)CNCCCCCCOCCCCc2ccccc2)ccc1O", "note": "(centres undefined) [Salmeterol Xinafoate]", "relative cell viability": "1.17 ± 0.076"},
      {"compound": "CC(=O)OCC(=O)[C@@]12N=C(C)O[C@@H]1C[C@H]1[C@@H]3CCC4=CC(=O)C=C[C@]4(C)[C@H]3[C@@H](O)C[C@@]12C", "note": "[Deflazacort]", "relative cell viability": "1.03 ± 0.012"},
      {"compound": "CCN1CC(CCN2CCOCC2)C(c2ccccc2)(c2ccccc2)C1=O", "note": "(centres undefined) [Doxapram HCl]", "relative cell viability": "0.987 ± 0.066"},
      {"compound": "CC(=O)N[C@H]1[C@H]([C@H](O)[C@H](O)CO)OC(C(=O)O)=C[C@@H]1NC(=N)N", "note": "[Zanamivir]", "relative cell viability": "1.28 ± 0.12"},
      {"compound": "CCC(=O)O[C@]1(C(=O)CCl)[C@@H](C)C[C@H]2[C@@H]3C[C@H](F)C4=CC(=O)C=C[C@]4(C)[C@@]3(F)[C@@H](O)C[C@@]21C", "note": "[Halobetasol Propionate]", "relative cell viability": "0.868 ± 0.059"},
      {"compound": "Cc1coc2c1C(=O)C(=O)c1c-2ccc2c(C)cccc12", "note": "[Tanshinone I]", "relative cell viability": "0.465 ± 0.034"},
      {"compound": "CCC1=C(C)CN(C(=O)NCCc2ccc(S(=O)(=O)NC(=O)N[C@H]3CC[C@H](C)CC3)cc2)C1=O", "note": "[Glimepiride]", "relative cell viability": "1.23 ± 0.085"},
      {"compound": "COc1cc(Nc2nc3ccccc3nc2NS(=O)(=O)c2ccc(NC(=O)c3ccc(C)c(OC)c3)cc2)cc(OC)c1", "relative cell viability": "1.06 ± 0.041"},
      {"compound": "C[C@@]12C[C@@]3(O)O[C@@H](O1)[C@]1(COC(=O)c4ccccc4)[C@H]3C[C@@]12O[C@@H]1O[C@H](CO)[C@@H](O)[C@H](O)[C@H]1O", "note": "[Paeoniflorin]", "relative cell viability": "1.16 ± 0.059"},
      {"compound": "CCS(=O)(=O)CCn1c([N+](=O)[O-])cnc1C", "note": "[Tinidazole]", "relative cell viability": "1.11 ± 0.13"}
    ]}
  ]
}
